Data reported in the antibiotic and cytotoxicity screens of Wong et al. (2023).
This is one part of the list.

tested on: HSkMC (human skeletal muscle cells); assay: cytotoxicity call (relative viability < 0.9); conditions: 10 µM

SMILES | cytotoxicity call
CO[C@@H]1CN(C)C(=O)c2cc(NS(=O)(=O)c3cn(C)cn3)ccc2OC[C@H](C)N(CCC(F)(F)F)C[C@H]1C | inactive
CNC(=O)c1cnc2n1CCN(Cc1nccn1C)C2 | inactive
Cc1noc(C)c1S(=O)(=O)Nc1ccc2c(c1)C(=O)N([C@H](C)CO)C[C@@H](C)[C@@H](CN(C)C)OCCCC[C@@H](C)O2 | inactive
C[C@@H]1CN([C@@H](C)CO)S(=O)(=O)c2ccc(-c3cccnc3)cc2O[C@H]1CN(C)CC1CCOCC1 | inactive
Cc1cc(C)n(C)c(=O)c1C(=O)O | inactive
Cc1noc(C)c1NC(=O)N(C)C[C@H]1OCCCC[C@H](C)Oc2ccc(NS(=O)(=O)c3cccs3)cc2C(=O)N([C@H](C)CO)C[C@@H]1C | inactive
COc1ccc(NC(=O)Nc2ccc3c(c2)C(=O)N([C@H](C)CO)C[C@H](C)[C@@H](CN(C)Cc2ccc(C(F)(F)F)cc2)O3)cc1 | inactive
COc1ccc2c3c(n(c2c1)C)[C@H](CO)N(CC1CCOCC1)C[C@]13CCN(CC1)C(=O)Cc1cccnc1 | inactive
COc1ccc(C#Cc2ccc3c(c2)O[C@H](CN(C)S(=O)(=O)c2ccccc2F)[C@@H](C)CN([C@H](C)CO)S3(=O)=O)cc1 | inactive
O=C(O)CNC(=O)c1ccc(S(=O)(=O)N2CCOCC2)cc1 | inactive
O=C(C[C@H]1C[C@H]2c3cc(NC(=O)c4ccc5c(c4)OCO5)ccc3O[C@H]2[C@@H](CO)O1)NCc1ccc(Oc2ccccc2)cc1 | inactive
C[C@@H]1CN([C@H](C)CO)C(=O)c2cc(NC(=O)Nc3ccc(F)cc3)ccc2O[C@@H]1CN(C)Cc1ccc(Cl)c(Cl)c1 | inactive
